# Out of some 48,000 compounds screened, about 450 (0.94%) were called active. Inconclusive results (about 19%) are left out. Calls follow the shape of the dose curve; as a rule, active = well fitted inhibition curve with a large enough effect; inconclusive = small, poorly fitted or top-dose-only effect; inactive = no such curve, though single readings can be large or run the other way. The list shows a part of the results.
# Experiment: Primary qHTS for Identification of Small Molecule Inhibitors of Huntingtin Promoter Activity; also: nearly all actives have a fitted effect of over 50% in size
# Conditions: HEK293 HTT promoter firefly luciferase reporter (activity 0% = vehicle and -100% = no light), 24 h; series mostly up to 57.5 µM; activity change, negative = inhibition: at the top concentration
# Summary of the method: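 HEK293 cells carrying firefly luciferase reporters were seeded at 2,500 per well in Opti-MEM and cultured for 24 h. They were then treated with compounds at up to 57.5 uM final for 24 h at 37 degrees C before Dual-Glo luminescence readout.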
row,SMILES,"activity change, negative = inhibition"
1,CCN1CCN(C(=O)c2ccc3c(c2)N(Cc2ccccc2)C(=O)c2ccccc2S3(=O)=O)CC1,inactive: 2.55%
2,CCOc1ccc(-c2cn3c(n2)sc2cc(C(=O)N4CCCC(C)C4)ccc23)cc1 (stereo not drawn),inactive: 13.7%
3,Cc1nc(N2CCOCC2)c2c(C(=O)N(C)c3ccccc3)c(C)oc2n1,inactive: -5.26%
4,CC(C)Cc1nn2c(=O)cc(COC(=O)c3cccc(NS(C)(=O)=O)c3)nc2s1,inactive: -5.91%
5,COc1ccc(CNC(=O)CCCN2C(=O)CCn3nc(-c4cn(C)c5ccccc45)cc32)cc1,inactive: -23.3%
6,COc1ccc(OC)c(NC(=O)Cn2ncc3c2-c2ccccc2OC3)c1,inactive: -17.1%
7,O=C(NCCC1=CCCCC1)C1CCN(C(=O)N2CCOc3ccccc32)CC1,inactive: -29.4%
8,O=C(NCCc1ccc(Cl)cc1)C1(c2cccs2)CCOCC1,inactive: -14.9%
9,Cc1ccc(-n2c(=O)c3cccnc3n2CC(=O)Nc2ccc(C)cc2Cl)cc1,inactive: 10.3%
10,Cc1cccc(-c2nc(CS(=O)CC(=O)NCc3ccc(Cl)cc3)c(C)o2)c1 (stereo not drawn),inactive: -11.6%
11,O=C(NCCc1ccccc1)c1ccc(CSc2nc3cccnc3n2Cc2ccccc2F)cc1,inactive: -22.6%
12,COc1cccc(-c2cn3c(n2)sc2cc(C(=O)NCc4ccccc4F)ccc23)c1,inactive: 3.99%
13,CCOC(=O)c1cc(-c2ccccc2)n(CC(=O)NCc2ccc(C)cc2)c1C,inactive: 1.32%
14,CCOC(=O)c1c(C)oc2nc(C)nc(NCC3CCN(Cc4ccccc4C)CC3)c12,inactive: 8.74%
15,Cc1ccc2nc(-c3cccc(NC(=O)c4cccc5c(Cl)cccc45)c3)oc2c1,inactive: -7.25%
16,O=C(NCC(c1cccnc1)N1CCOCC1)C(=O)Nc1ccc(Cl)cc1 (stereo not drawn),inactive: -11.3%
17,Cc1ccc(S(=O)(=O)n2nc(-c3ccccc3)nc2NCc2ccccc2Cl)cc1,inactive: -17.7%
18,C#C[C@]1(O)CC[C@H]2[C@@H]3CCC4=Cc5oncc5C[C@]4(C)[C@H]3CC[C@@]21C,inactive: -17.5%
19,Cc1ccc(-c2cc(C(=O)N3CCN(S(=O)(=O)c4ccc(Br)s4)CC3)[nH]n2)cc1C,inactive: -21.1%
20,COc1ccc(CNc2nc(-c3ccco3)nn2S(=O)(=O)c2ccc3ccccc3c2)cc1OC,inactive: -22.7%
21,Cc1cc(C)n2nc(NCc3ccccc3Cl)nc2n1,inactive: 5.87%
22,Cc1ccc(C)c(NC(=O)Cn2c(=O)n(Cc3nc(C)no3)c(=O)c3cc4c(cc32)OCO4)c1,inactive: -15.4%
23,CCc1ccc(NC(=O)Cn2c(=O)n(Cc3ccc4c(c3)OCO4)c(=O)c3oc4ccccc4c32)cc1,inactive: -0.851%
24,CC(=O)Nc1ccc(NC(=O)CSc2cn(CC(=O)N(C(C)C)C(C)C)c3ccccc23)cc1,inactive: -4.5%

row,SMILES,"activity change, negative = inhibition"
1,Cc1cc2oc(C(=O)NCCc3ccc(S(N)(=O)=O)cc3)cc(=O)c2cc1C,inactive: -21.7%
2,CCC(=O)N1CCc2cc(S(=O)(=O)NC(Cc3ccccc3)C(=O)NCc3ccc(C)cc3)ccc21 (stereo not drawn),inactive: -10.4%
3,COc1ccc(OCCn2cc(C(=O)c3ccco3)c3ccccc32)cc1,inactive: -28.4%
4,CCOc1ccccc1CN1C(=O)c2ccccc2C1C(=O)NC1CCCCCC1 (stereo not drawn),inactive: -11.7%
5,COC(=O)c1cc2occc2n1Cc1nc(-c2ccccc2C)oc1C,inactive: -5.22%
6,COc1ccc(-c2nc(C)c(CCNC(=O)c3ccco3)s2)cc1,inactive: 20.5%
7,CCC(C)Sc1nc2c([nH]c3ccccc32)c(=O)n1C (stereo not drawn),inactive: -1.16%
8,Cc1ccccc1COC(=O)c1ccc(-c2nnn(Cc3ccccc3F)n2)cc1,inactive: 21.3%
9,CCN1CCN(C(=O)c2ccc3c(c2)N(Cc2c(F)cccc2Cl)C(=O)c2ccccc2S3)CC1,inactive: -24.2%
10,O=c1c(-c2cc(-c3ccc(F)cc3)nc3c2COc2ccc(Cl)cc2-3)coc2ccc(F)cc12,inactive: -1.62%
11,CC(=O)N1c2ccc(S(=O)(=O)N3CCN(c4cc(Cl)ccc4C)CC3)cc2CC1C (stereo not drawn),inactive: 7.04%
12,O=C(CCCCCn1c(=O)[nH]c2ccccc2c1=O)N1CCN(c2ccc(Cl)cc2)CC1,inactive: -9.7%
13,COc1cc2c(cc1OC)C(COc1cc(C)cc(C)c1)N(C(=O)c1ccc(S(=O)(=O)N3CCCC3)cc1)CC2 (stereo not drawn),inactive: -24.5%
14,O=C(CSc1nc2c([nH]c3ccccc32)c(=O)n1-c1cccc(Cl)c1)NCc1ccccc1,inactive: -23.8%
15,CCc1nnc(NC(=O)CSc2nc3c([nH]c4ccccc43)c(=O)n2-c2ccc(C)cc2)s1,inactive: -24.5%
16,CCc1nc2ccc(C(=O)N3CCN(c4cccc(OC)c4)CC3)cc2nc1CC,inactive: -14%
17,CCOC(=O)C1CCCN(C(=O)Cn2ncc3c4ccccc4n(Cc4ccc(F)cc4)c3c2=O)C1 (stereo not drawn),inactive: -18.7%
18,O=C(COc1ccccc1)Nc1sc2c(c1C(=O)Nc1ccccc1)CCCCC2,inactive: 2.3%
19,CC(=O)SCC(CC(=O)c1ccc(C)cc1)C(=O)O (stereo not drawn),inactive: 11.8%
20,CCOC(=O)CNC(=O)CC(c1cc(OC)c(OC)c(OC)c1)N1Cc2ccccc2C1=O (stereo not drawn),inactive: -9.39%
21,CCOC(=O)c1ccc(NC(=O)CCn2c(=O)oc3ccccc32)cc1,inactive: -5.98%
22,CCN(CC)c1ccc(C(=O)Nc2ccc3nc(N(CC)CC)cc(C)c3c2)cc1,inactive: -22.8%
23,Cc1ccc2[nH]c(CSc3nnc(NC(=O)COc4ccccc4Cl)s3)cc(=O)c2c1,inactive: 5.59%
24,CN(Cc1ccccc1)C(=O)Cn1c(=O)c2cccn2c2ccc(F)cc21,inactive: 17.2%
